153 variants from a collection of fitness landscapes (doi:10.1016/j.celrep.2020.107928) can be followed below.

B1: Caulobacter ParB omega fusion; a variant is named by its letters at X, in order, B8GW30 (parent)
chain: MESVVVGEPGMSEGRRGLGRGLSALLGEVDAAPAQAPGEQLGGSREAPIEILQRNPDQPRRTFREEDLEDLSNSIREKGVLQPILVRPSPDTAGEYQIVAGERAWRAAQRAGLKTVPIMVRELDDLAVLEIGIIENVQRADLNVLEEALSYKVLMEKFERTQENIAQTIGKSXSHVANXMRLLXLPDEVQSYLVSGELTAXHARAIAAAADPVALAKQIIEGGLSVRETEALARKAPNLSAGKSKGGRPPRVKDTDTQALESDLSSVLGLDVSIDHRGSTGTLTITYATLEQLDDLCNRLTRGI

In all, about 81,000 sequences were measured (“one-hybrid fitness for binding parS DNA”: median about -0.17, highest 2% from about 0.51 on). This is one part of the list.

This assay covers variants of B1. Briefly: one-hybrid fitness for binding parS DNA (scaled: cognate 1, non-cognate 0); higher = stronger binding. As to conditions: with parS DNA site. The essentials: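 Selection: bacterial one-hybrid in E. coli USO, HIS3 reporter with the site 19 bp from the promoter, 48 hours at 37°C on M9-minus-histidine plus 0.1 mM IPTG and 5 mM 3-AT. Libraries were Caulobacter ParB with four randomised specificity codons, sequenced on Illumina before and after selection. Fitness is the rescaled log change in variant-to-wild-type read ratio, anchored to the cognate and non-cognate sites.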
Regarding HGWW, the “one-hybrid fitness for binding parS DNA” value is at most 0.2. DQDC: the “one-hybrid fitness for binding parS DNA” value is at most 0.2.

For the variant NAIT, the “one-hybrid fitness for binding parS DNA” value is at most 0.2. For the variant SYHI, the “one-hybrid fitness for binding parS DNA” value was at most 0.2.

Regarding ASRH, the “one-hybrid fitness for binding parS DNA” value was at most 0.2.

In the case of IQME, the “one-hybrid fitness for binding parS DNA” value was at most 0.2.

For the variant SPAP, the “one-hybrid fitness for binding parS DNA” value was at most 0.2. Take WVMC: the “one-hybrid fitness for binding parS DNA” value was at most 0.2. For the variant VEYS, the “one-hybrid fitness for binding parS DNA” value is at most 0.2.

NVIG: the “one-hybrid fitness for binding parS DNA” value is at most 0.2.

Regarding RWRQ, the “one-hybrid fitness for binding parS DNA” value is at most 0.2. In the case of VRCC, the “one-hybrid fitness for binding parS DNA” value was at most 0.2. Turning to NRHC, the “one-hybrid fitness for binding parS DNA” value was at most 0.2.

As to GQKN, the “one-hybrid fitness for binding parS DNA” value is at most 0.2. QSKT: the “one-hybrid fitness for binding parS DNA” value was at most 0.2. The value for DMSV was at most 0.2. In the case of KLSG, the “one-hybrid fitness for binding parS DNA” value was at most 0.2. DKTV: the “one-hybrid fitness for binding parS DNA” value is at most 0.2.

As for DREC, the “one-hybrid fitness for binding parS DNA” value was at most 0.2. CVDG: the “one-hybrid fitness for binding parS DNA” value is at most 0.2. Regarding GTAL, the “one-hybrid fitness for binding parS DNA” value is at most 0.2. Take NSRV: the “one-hybrid fitness for binding parS DNA” value is at most 0.2. For IEPE, the “one-hybrid fitness for binding parS DNA” value is at most 0.2.

For the variant HTEM, the “one-hybrid fitness for binding parS DNA” value was at most 0.2.

On to NSNR, for which the “one-hybrid fitness for binding parS DNA” value is at most 0.2. Take QPRQ: the “one-hybrid fitness for binding parS DNA” value was at most 0.2. As for HETW, the “one-hybrid fitness for binding parS DNA” value is at most 0.2. In the case of LAGL, the “one-hybrid fitness for binding parS DNA” value is at most 0.2.

For the variant AWSC, the “one-hybrid fitness for binding parS DNA” value is at most 0.2. For CIES, the “one-hybrid fitness for binding parS DNA” value is at most 0.2. For the variant QKTS, the “one-hybrid fitness for binding parS DNA” value is at most 0.2.

As to HNIL, the “one-hybrid fitness for binding parS DNA” value was at most 0.2. Take LIAY: the “one-hybrid fitness for binding parS DNA” value was at most 0.2.

For the variant MPSF, the “one-hybrid fitness for binding parS DNA” value is at most 0.2. Take GYIM: the “one-hybrid fitness for binding parS DNA” value was at most 0.2. Consider PTPV, for which the “one-hybrid fitness for binding parS DNA” value is at most 0.2.

FQVS: the “one-hybrid fitness for binding parS DNA” value is at most 0.2. In the case of WCPC, the “one-hybrid fitness for binding parS DNA” value is at most 0.2.

As for RCTR, the “one-hybrid fitness for binding parS DNA” value was at most 0.2.

As to NCNR, the “one-hybrid fitness for binding parS DNA” value is at most 0.2.

Consider LVEF, for which the “one-hybrid fitness for binding parS DNA” value is at most 0.2. For KKLV, the “one-hybrid fitness for binding parS DNA” value was at most 0.2.

For the variant CTHR, the “one-hybrid fitness for binding parS DNA” value was at most 0.2. For EDVG, the “one-hybrid fitness for binding parS DNA” value is at most 0.2.

As for KVFG, the “one-hybrid fitness for binding parS DNA” value is at most 0.2. Turning to KCSE, the “one-hybrid fitness for binding parS DNA” value is at most 0.2. For KYLC, the “one-hybrid fitness for binding parS DNA” value is at most 0.2. The figure for ASTG is at most 0.2; for VHLR it is at most 0.2. Take RILS: the “one-hybrid fitness for binding parS DNA” value was determined as 1.04.

Take LMEG: the “one-hybrid fitness for binding parS DNA” value was at most 0.2. Regarding MGRH, the “one-hybrid fitness for binding parS DNA” value was at most 0.2.

In the case of TRPY, the “one-hybrid fitness for binding parS DNA” value was at most 0.2. The figure for YYPR is at most 0.2; for WTGS it is at most 0.2. The value for EAYN was at most 0.2.

As for QRYD, the “one-hybrid fitness for binding parS DNA” value is at most 0.2. With YVYS, the “one-hybrid fitness for binding parS DNA” value is at most 0.2. The value for MTGA was at most 0.2; that for HHIR was at most 0.2; that for DRNY was at most 0.2.

As for WFGC, the “one-hybrid fitness for binding parS DNA” value is at most 0.2.

For the variant HISY, the “one-hybrid fitness for binding parS DNA” value was at most 0.2. Turning to PWQK, the “one-hybrid fitness for binding parS DNA” value is at most 0.2. As for LTKL, the “one-hybrid fitness for binding parS DNA” value is at most 0.2. For PDHF, the “one-hybrid fitness for binding parS DNA” value is at most 0.2. For ETMS, the “one-hybrid fitness for binding parS DNA” value was at most 0.2. The figure for AFGG is at most 0.2; for SQAF it is at most 0.2. In the case of DQKV, the “one-hybrid fitness for binding parS DNA” value was at most 0.2. Take SCHA: the “one-hybrid fitness for binding parS DNA” value is at most 0.2.

On to QSYS, for which the “one-hybrid fitness for binding parS DNA” value is at most 0.2. Regarding ATTM, the “one-hybrid fitness for binding parS DNA” value is at most 0.2. As to QCPL, the “one-hybrid fitness for binding parS DNA” value was at most 0.2.

With KSTE, the “one-hybrid fitness for binding parS DNA” value was at most 0.2. On to SGQR, for which the “one-hybrid fitness for binding parS DNA” value is at most 0.2. As to KPVS, the “one-hybrid fitness for binding parS DNA” value is at most 0.2. Take WFHR: the “one-hybrid fitness for binding parS DNA” value was at most 0.2. For RAWW, the “one-hybrid fitness for binding parS DNA” value is 0.26.

With RTNL, the “one-hybrid fitness for binding parS DNA” value was at most 0.2. On to TCNS, for which the “one-hybrid fitness for binding parS DNA” value is at most 0.2.

PSSL: the “one-hybrid fitness for binding parS DNA” value was at most 0.2. Regarding SSRW, the “one-hybrid fitness for binding parS DNA” value was at most 0.2. As for SSTY, the “one-hybrid fitness for binding parS DNA” value is at most 0.2. On to IPSL, for which the “one-hybrid fitness for binding parS DNA” value was at most 0.2.

Turning to RAMH, the “one-hybrid fitness for binding parS DNA” value was at most 0.2. As to TNPG, the “one-hybrid fitness for binding parS DNA” value was at most 0.2. The value for NESA was at most 0.2; that for WGHP was at most 0.2; that for ANGM was at most 0.2. Regarding YSWL, the “one-hybrid fitness for binding parS DNA” value is at most 0.2. As to QKKY, the “one-hybrid fitness for binding parS DNA” value was at most 0.2. For KNQG, the “one-hybrid fitness for binding parS DNA” value was at most 0.2. The value for DEAT was at most 0.2; that for WHAL was at most 0.2; that for SLWW was at most 0.2.

IDNW: the “one-hybrid fitness for binding parS DNA” value is at most 0.2.

For the variant VKAI, the “one-hybrid fitness for binding parS DNA” value was 0.241. With KFCS, the “one-hybrid fitness for binding parS DNA” value is at most 0.2. Consider LRKC, for which the “one-hybrid fitness for binding parS DNA” value was at most 0.2. In the case of TCVF, the “one-hybrid fitness for binding parS DNA” value is at most 0.2. Take ARTA: the “one-hybrid fitness for binding parS DNA” value was at most 0.2. As to MHVN, the “one-hybrid fitness for binding parS DNA” value is at most 0.2. On to RARH, for which the “one-hybrid fitness for binding parS DNA” value is at most 0.2. The value for SPPH was at most 0.2; that for DLSQ was at most 0.2. The figure for HPKV is at most 0.2; for SFVR it is at most 0.2. ICRC: the “one-hybrid fitness for binding parS DNA” value is at most 0.2. The value for QTDA was at most 0.2; that for DAQG was at most 0.2; that for ENSP was at most 0.2. Consider QDKA, for which the “one-hybrid fitness for binding parS DNA” value is at most 0.2. Take WLKN: the “one-hybrid fitness for binding parS DNA” value was at most 0.2. As for YALR, the “one-hybrid fitness for binding parS DNA” value is at most 0.2. In the case of CCGR, the “one-hybrid fitness for binding parS DNA” value was at most 0.2. For the variant WALS, the “one-hybrid fitness for binding parS DNA” value was at most 0.2. For the variant QPYR, the “one-hybrid fitness for binding parS DNA” value was at most 0.2. Consider LQYL, for which the “one-hybrid fitness for binding parS DNA” value is at most 0.2. PPPR: the “one-hybrid fitness for binding parS DNA” value is at most 0.2.

With FVVV, the “one-hybrid fitness for binding parS DNA” value was at most 0.2. Consider VYSR, for which the “one-hybrid fitness for binding parS DNA” value is at most 0.2. As for THFM, the “one-hybrid fitness for binding parS DNA” value was at most 0.2. For the variant TEKD, the “one-hybrid fitness for binding parS DNA” value is at most 0.2. As to ILDL, the “one-hybrid fitness for binding parS DNA” value was at most 0.2. The figure for TLSA is at most 0.2; for AKTC it is at most 0.2. Regarding TSIA, the “one-hybrid fitness for binding parS DNA” value is at most 0.2. On to PSTP, for which the “one-hybrid fitness for binding parS DNA” value is at most 0.2. In the case of DDER, the “one-hybrid fitness for binding parS DNA” value is at most 0.2. For GPPI, the “one-hybrid fitness for binding parS DNA” value is at most 0.2. The figure for QQQW is at most 0.2. ENNC: the “one-hybrid fitness for binding parS DNA” value was at most 0.2. With NFTG, the “one-hybrid fitness for binding parS DNA” value was at most 0.2.

With TQKG, the “one-hybrid fitness for binding parS DNA” value is at most 0.2.

For HGQS, the “one-hybrid fitness for binding parS DNA” value was at most 0.2.

Regarding YSHR, the “one-hybrid fitness for binding parS DNA” value is at most 0.2. As for YTRL, the “one-hybrid fitness for binding parS DNA” value was at most 0.2.

On to FSPW, for which the “one-hybrid fitness for binding parS DNA” value was at most 0.2. On to IPTG, for which the “one-hybrid fitness for binding parS DNA” value is at most 0.2. GPYM: the “one-hybrid fitness for binding parS DNA” value was at most 0.2. With DHQD, the “one-hybrid fitness for binding parS DNA” value was at most 0.2. The figure for NRFS is at most 0.2. The value for TEWY was at most 0.2; that for QGQS was at most 0.2. For LWYA, the “one-hybrid fitness for binding parS DNA” value is at most 0.2. As for IWMT, the “one-hybrid fitness for binding parS DNA” value was at most 0.2. As for VLTY, the “one-hybrid fitness for binding parS DNA” value is at most 0.2. Consider ANDI, for which the “one-hybrid fitness for binding parS DNA” value was at most 0.2. For the variant LDTC, the “one-hybrid fitness for binding parS DNA” value is at most 0.2. WLYC: the “one-hybrid fitness for binding parS DNA” value is at most 0.2.

In the case of NIHN, the “one-hybrid fitness for binding parS DNA” value is at most 0.2.

With YIKG, the “one-hybrid fitness for binding parS DNA” value is at most 0.2.
